In PubChem BioAssay AID1460 (National Center for Advancing Translational Sciences (NCATS), 2008):
Out of some 270,000 compounds screened, about 5,800 (2.1%) were called active. Inconclusive results, whose numbers are uncertain, are shown with a selection of clear calls. Calls follow the shape of the dose curve; as a rule, active = well fitted inhibition curve with a large enough effect; inconclusive = small, poorly fitted or top-dose-only effect; inactive = flat fitted curve, though single readings scatter. A potency beside an inconclusive call is a rough fit, not a confirmed value.

biological target: Microtubule-associated protein tau (Homo sapiens) (UniProt P10636); test: qHTS for Inhibitors of Tau Fibril Formation, Thioflavin T Binding; conditions: recombinant tau K18 P301L (four-repeat tau fragment), heparin-induced fibrillization, ThT fluorescence; series mostly up to 57.4 µM; also: nearly all actives have a fitted effect of over 55% in size
Method in brief: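 Aggregation was driven by heparin (20 uM final) acting on recombinant tau […] bearing P301L in 100 mM sodium acetate pH 7; fibrils were detected with Thioflavin T.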
Potency is read from the fitted curve at half-maximal effect; tags tell the direction and shape of the fitted curve.

Sequence of UniProt P10636 (P10636 whole entry, looked up, the tested form may be a part): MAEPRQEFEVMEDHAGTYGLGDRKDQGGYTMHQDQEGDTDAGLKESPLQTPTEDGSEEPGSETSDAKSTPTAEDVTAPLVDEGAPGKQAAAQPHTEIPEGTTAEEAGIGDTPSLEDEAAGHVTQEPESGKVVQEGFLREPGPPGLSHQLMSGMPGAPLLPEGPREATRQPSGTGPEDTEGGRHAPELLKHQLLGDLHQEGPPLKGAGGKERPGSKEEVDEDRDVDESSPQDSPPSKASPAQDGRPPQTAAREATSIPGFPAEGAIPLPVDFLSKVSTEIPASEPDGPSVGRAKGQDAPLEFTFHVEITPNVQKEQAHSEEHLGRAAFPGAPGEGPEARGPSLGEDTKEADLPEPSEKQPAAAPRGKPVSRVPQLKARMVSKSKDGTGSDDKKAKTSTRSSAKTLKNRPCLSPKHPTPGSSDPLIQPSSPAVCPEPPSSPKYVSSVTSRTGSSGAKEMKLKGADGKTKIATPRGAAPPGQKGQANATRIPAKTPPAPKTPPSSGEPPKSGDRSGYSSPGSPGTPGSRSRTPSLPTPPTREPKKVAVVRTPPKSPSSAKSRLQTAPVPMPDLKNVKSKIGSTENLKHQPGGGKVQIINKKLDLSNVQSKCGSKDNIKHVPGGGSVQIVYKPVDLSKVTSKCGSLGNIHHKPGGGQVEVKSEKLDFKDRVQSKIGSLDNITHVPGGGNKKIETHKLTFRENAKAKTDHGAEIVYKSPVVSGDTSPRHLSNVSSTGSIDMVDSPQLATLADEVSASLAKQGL

| SMILES | Potency |
| --- | --- |
| COc1cc(/C=C(\C#N)c2nc3ccccc3[nH]2)ccc1Oc1ccc([N+](=O)[O-])cn1 | inconclusive: 3.55 µM [inhibitor, full curve] |
| CCC(C)NC(=O)c1c(C)oc2ncn(CC(C)C)c(=O)c12 (centres undefined) | inactive |
| Cc1ccccc1C1CC(=O)Oc2cc(C)c(Cl)c(C)c21 (centres undefined) | inactive |
| COc1ccc(-c2nc3ccccc3n3c(-c4cccc(C)c4)c4c(=O)n(C)c(=O)n(C)c4c23)cc1OC | inconclusive: 15.8 µM [inhibitor, partial curve, poor fit] |
| CC(=O)NC(=S)Nc1sc2c(c1C(N)=O)CCC(C)C2 (centres undefined) | inconclusive: 6.31 µM [inhibitor, partial curve, poor fit] |
| Cc1cc(S(=O)(=O)NCc2ccc(N3CCN(C)CC3)cc2)c(C)s1 | inactive |
| COc1ccccc1-c1nnc(SCC(=O)N2CCOCC2)n1-c1ccccc1 | inactive |
| CCOc1ccc2[nH]c(=O)c(C(c3nnnn3Cc3ccco3)N3CCCC(C)C3)cc2c1 (centres undefined) | inconclusive: 31.6 µM [inhibitor, partial curve] |
| CCCCC1(C)Nc2ccccc2-c2nc3ccccc3n21 (centres undefined) | inconclusive: 31.6 µM [inhibitor, partial curve] |
| Cc1cc(=O)oc2cc(OCc3ccc(C(=O)OCC(=O)NC4CCS(=O)(=O)C4)cc3)ccc12 (centres undefined) | inconclusive: 0.178 µM [inhibitor, full curve] |
| CCc1ccc(C(=O)NNc2ccc(F)cc2F)cc1 | inactive |
| O=C(Cc1ccc(F)cc1)N/N=C/c1ccc(-c2ccc(Cl)c(C(=O)O)c2)o1 | inactive |
| Nc1cc(OC(=O)c2cccs2)nn1S(=O)(=O)c1ccccc1 | inconclusive: 11.2 µM [inhibitor, partial curve] |
| CCOC(=O)c1cnn(-c2nc3c(C)cccc3s2)c1C | inconclusive: 2.24 µM [inhibitor, full curve] |
| Cc1ccsc1C=Nc1ccc(O)cc1 | active: 3.55 µM |
| Cc1ccnc(NC(=S)NC(=O)c2cncc(Br)c2)c1 | inactive |
| CCOC(=O)c1ccccc1NC(=O)Cn1ncc2c1-c1ccccc1OC2 | inconclusive: 39.8 µM [inhibitor, single point] |
| CCn1c(-c2cc(-c3cc(C)ccc3C)nc3ccccc23)n[nH]c1=S | inactive |
| Cc1ccccc1CSc1nnc2[nH]c(=O)cc(-c3ccccc3)n12 | inconclusive: 1.26 µM [inhibitor, full curve, poor fit] |
| CCOC(=O)c1cccc(C(=O)Oc2ccccc2)n1 | inconclusive: 35.5 µM [inhibitor, partial curve] |
| Cc1cccc(N=Cc2cc(Br)cc(Cl)c2O)c1 | active: 14.1 µM |
| Cc1ccc(-c2nnc(SCC(=O)N/N=C/c3ccccc3C(=O)O)n2-c2ccc(Cl)cc2)cc1 | inconclusive: 11.2 µM [inhibitor, partial curve, poor fit] |
| CC(=O)OCCn1c2nc(=O)[nH]c(=O)c-2nc2cc(C)c(C)cc21 | inconclusive: 3.98 µM [activator, full curve] |
| N=c1scc(-c2ccccc2)n1/N=C/c1ccco1 | inconclusive: 7.08 µM [inhibitor, partial curve] |
| CSc1ncc(C(=O)Nc2ccccc2C(F)(F)F)c(-c2ccccc2)n1 | inactive |

| SMILES | Potency |
| --- | --- |
| c1ccc(-c2csc(Nc3cccnc3)n2)cc1 | inconclusive: 4.47 µM [inhibitor, partial curve] |
| CCc1cccc(NC(=O)CN(c2ccc(C)c(C)c2)S(=O)(=O)c2ccsc2C(=O)OC)c1 | inactive |
| CCOC(=O)c1ccc(NC(=O)CCOc2ccccc2)cc1 | inconclusive: 3.98 µM [inhibitor, full curve] |
| Cc1cccc(N=C2NC(=O)/C(=C/c3cccnc3)S2)c1C | inconclusive: 44.7 µM [inhibitor, single point] |
| Cc1cc(C(C)(C)C)oc1C(=O)N(CC(=O)NC1CCCC1)c1c(C)cccc1C | inconclusive: 20 µM [inhibitor, partial curve] |
| CC(C)OCCCNc1ncnc2sc3c(c12)CCCC3 | inactive |
| Oc1ccccc1CNc1ccc2c(c1)OCCO2 | inconclusive: 25.1 µM [inhibitor, single point] |
| CSCC(=O)N1CCCC(CNC(=O)c2ccc(-c3ccccc3)cc2)C1 (centres undefined) | inactive |
| O=C(CSc1nc(Nc2ccccc2)nc(N2CCOCC2)n1)Nc1ccccc1Cl | inactive |
| N#C/C(=C(/O)COC(=O)Cc1c[nH]c2ccccc12)c1nc2ccccc2[nH]1 | inconclusive: 20 µM [inhibitor, partial curve] |
| COc1cc(NCc2ccccc2O)c2ncccc2c1 | inconclusive: 39.8 µM [inhibitor, single point] |
| CCCC1=NN2C(=N)/C(=C\c3cc(C)n(Cc4ccccc4)c3C)C(=O)N=C2S1 | inactive |
| CCC(=O)N1c2ccccc2CC1C(=O)NCCc1cc(OC)c(OC)c(OC)c1 (centres undefined) | inactive |
| COC(=O)c1sc(-c2ccc(Cl)cc2)cc1N | inconclusive: 0.224 µM [inhibitor, full curve, poor fit] |
| COc1ccc(/C=C/C(=O)ONC2=NCCCCC2)cc1OC | inconclusive: 39.8 µM [inhibitor, single point] |
| COc1cc(/C=N/NC(=O)C(Cc2c[nH]c3ccccc23)NC(=O)OCC(C)C)cc([N+](=O)[O-])c1O (centres undefined) | active: 14.1 µM |
| Cc1ccccc1CCNC(=O)c1ccc2c(c1)nc1n2CCOC1 | inconclusive: 12.6 µM [inhibitor, single point] |
| CCOC(=O)c1[nH]cnc1C(=O)Nc1cccc(OC)c1 | inactive |
| O=C(N/N=C/C=C/c1ccccc1[N+](=O)[O-])c1cc(-c2cccnc2)nc2ccccc12 | inactive |
| CCCn1c(CCC(=O)Nc2cc(C(=O)OC)cc(C(=O)OC)c2)nc2cccnc21 | inactive |
| CC(=O)C1(C)N(O)C(C)(C)C(c2cccs2)=[N+]1[O-] (centres undefined) | inconclusive: 2.24 µM [inhibitor, full curve] |
| CC(C)COC(=O)OCN1C(=O)CN(CCN2CC(=O)N(COC(=O)OCC(C)C)C(=O)C2)CC1=O | inactive |
| CCCCn1c(-c2sccc2C)n[nH]c1=S | inactive |
| CC1(C)CC(=O)C(N=Nc2ccc3ncsc3c2)=C(O)C1 | inconclusive: 15.8 µM [inhibitor, partial curve] |
| COc1ccccc1C1CCN(c2cc(O)ccc2[N+](=O)[O-])CC1 | active: 20 µM |

| SMILES | Potency |
| --- | --- |
| COCCNC(=O)C1CCN(C(=O)c2cc3sccc3n2Cc2ccc(Cl)cc2)CC1 | inactive |
| Cc1cc(NS(=O)(=O)c2ccc(Nc3nc(-c4sc(N)nc4C)cs3)cc2)no1 | active: 20 µM |
| COc1ccccc1/C=N/NC(=O)c1ccc(-c2ccccc2)cc1 | inconclusive: 0.708 µM [inhibitor, full curve] |
| c1ccc2c(CCNc3ncnc4nc[nH]c34)c[nH]c2c1 | inconclusive: 14.1 µM [inhibitor, partial curve] |
| Cc1ccc2sc(NNC(=O)c3cc(=O)c4ccccc4o3)nc2c1C | active: 3.98 µM |
| O=C(CCN1C(=O)c2ccccc2C1=O)Nc1ccc(-c2nc3ccccc3s2)cc1 | inconclusive: 1.26 µM [inhibitor, full curve, poor fit] |
| COc1ccc(N2CCN(Cc3cc(=O)oc4c3ccc3ccccc34)CC2)cc1 | inconclusive: 3.98 µM [inhibitor, partial curve] |
| COc1ccc2nc(-c3ccco3)c(-c3ccco3)nc2c1 | active: 4.47 µM |
| Cc1c(C(=O)O)oc2c1/C(=N\O)CCC2 | inactive |
| COC(=O)CSc1nnc(CNc2ccc(F)cc2)o1 | inactive |
| O=C(COc1ccccc1)Nc1ccc(N2CCN(C(=O)c3ccco3)CC2)cc1 | inconclusive: 3.16 µM [inhibitor, partial curve] |
| COc1cc(/C=N/NC(=O)c2cccs2)ccc1OCc1ccccc1 | inconclusive: 1.12 µM [inhibitor, full curve] |
| CC(C)C(C)(C#N)NC(=O)CSc1nnc(-c2ccncc2)n1Cc1ccccc1 (centres undefined) | inactive |
| Cc1cc(-c2cn3ccccc3n2)c(C)n1-c1ccccc1 | inconclusive: 15.8 µM [inhibitor, partial curve] |
| COc1ccc(O[C@H]2C=C[C@@H](c3ccccc3)O[C@@H]2CO/N=C\[C@@H](C)[C@H](OCc2ccccc2)C(C)C)cc1 | inconclusive: 1.58 µM [inhibitor, single point] |
| CC1=C(C(=O)Nc2ccc(Cl)cc2)C(c2ccccc2F)n2nc(SCc3cccc(Cl)c3)nc2N1 (centres undefined) | inactive |
| COc1ccc(N2CCN(c3ccc(C(N)=O)cc3[N+](=O)[O-])CC2)cc1 | active: 4.47 µM |
| CN(C1CCCCC1)S(=O)(=O)c1ccc(NC(=O)Cn2nc(-c3ccc(F)cc3)ccc2=O)cc1 | inconclusive: 22.4 µM [activator, single point] |
| CCOC(=O)c1c(-c2ccc(Cl)cc2)cn2ccccc12 | inactive |
| COCCn1c(-c2ccc(OC)cc2)cnc1SCC(=O)Nc1ccc(OC)cc1OC | inconclusive: 15.8 µM [inhibitor, partial curve] |
| Cc1ccc(-c2ccc(CCC(=O)O)n2Cc2ccco2)cc1 | inconclusive: 17.8 µM [inhibitor, partial curve, poor fit] |
| O=c1c2cc(-c3ccccc3)sc2ncn1-n1cccc1 | inactive |
| Fc1cccc(Nc2ncnc3c2cnn3-c2ccccc2)c1 | inconclusive: 39.8 µM [activator, single point] |
| CCOc1cccc(C(=O)NC(=S)Nc2cccc(C)c2)c1 | inconclusive: 8.91 µM [inhibitor, partial curve] |
